± gives the standard deviation of the averaged measurements. Laboratory Escherichia coli strains with one amino-acid change in an essential protein, pooled on minimal glucose agar with carbenicillin or gentamicin at twice the control MIC (plus kanamycin and chloramphenicol for the plasmids), 48 h. Fold change of barcode share against drug-free plates; higher = less susceptible. Active = above 20 in both replicates (the paper's putatively resistant). '<' = one read or none on drug, '>' = one read or none on a drug-free plate. Shares are relative, so most strains fall below 1 when a few take over. Listed are strains with at least 15 reads on both drug-free plates, and hits; most hits rest on fewer reference reads. Replicate rank correlation about 0.5. Edits are read from barcodes.
B1: bioH; numbered along this chain (parent)
chain: MNNIWWQTKGQGNVHLVLLHGWGLNAEVWRCIDEELSSHFTLHLVDLPGFGRSRGFGALSLADMAEAVLQQAPDKAIWLGWSLGGLVASQIALTHPERVQALVTVASSPCFSARDEWPGIKPDVLAGFQQQLSDDFQRTVERFLALQTMGTETARQDARALKKTVLALPMPEVDVLNGGLEILKTVDLRQPLQNVSMPFLRLYGYLDGLVPRKVVPMLDKLWPHSESYIFAKAAHAPFISHPAEFCHLLVALKQRV
B2: hemH; numbered along this chain (parent)
chain: MRQTKTGILLANLGTPDAPTPEAVKRYLKQFLSDRRVVDTSRLLWWPLLRGVILPLRSPRVAKLYASVWMEGGSPLMVYSRQQQQALAQRLPEMPVALGMSYGSPSLESAVDELLAEHVDHIVVLPLYPQFSCSTVGAVWDELARILARKRSIPGISFIRDYADNHDYINALANSVRASFAKHGEPDLLLLSYHGIPQRYADEGDDYPQRCRTTTRELASALGMAPEKVMMTFQSRFGREPWLMPYTDETLKMLGEKGVGHIQVMCPGFAADCLETLEEIAEQNREVFLGAGGKKYEYIPALNATPEHIEMMANLVAAYR

Variants of: B1
Experiment: barcode share on antibiotic plates over drug-free plates; higher = less susceptible
Conditions: with Escherichia coli (laboratory strain); antibiotic: carbenicillin; 2× MIC (3.1 µg/mL)
Protocol: (§1)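 A pool of E. coli strains, each edited to carry one amino-acid change in an essential protein, was grown for 48 h on minimal glucose agar with or without antibiotic; strain barcodes were sequenced; mean of two replicates.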
L249D was tested, and the “fold change of barcode share” value was 0.239 ± 0.023. For L249P, the “fold change of barcode share” value was 1.11 ± 0.32. L249W was tested, and the “fold change of barcode share” value was 0.284 ± 0.066. For L249A, the “fold change of barcode share” value was 1.09 ± 0.57. In the case of L79Q, the “fold change of barcode share” value is reported as 0.843 ± 0.32. L79D was tested, and the “fold change of barcode share” value was 0.625 ± 0.057. L79P was tested, and the “fold change of barcode share” value was 0.67 ± 0.14. With L79W the “fold change of barcode share” value was 0.613 ± 0.035. In the case of L79A, the “fold change of barcode share” value is reported as 0.533 ± 0.12. For L200W, the “fold change of barcode share” value was 0.387 ± 0.021. L200D was tested, and the “fold change of barcode share” value was 0.4127 ± 0.0024. In the case of L200A, the “fold change of barcode share” value is reported as 0.483 ± 0.081. For L200P, the “fold change of barcode share” value was 0.399 ± 0.057. With L200Q the “fold change of barcode share” value was 0.384 ± 0.064. For V103A, the “fold change of barcode share” value was 0.432 ± 0.12. For V103P, the “fold change of barcode share” value was 0.386 ± 0.11. With V103Q the “fold change of barcode share” value was 0.418 ± 0.12. V103W was tested, and the “fold change of barcode share” value was 0.651 ± 0.26. With V103D the “fold change of barcode share” value was 0.78 ± 0.13. In the case of W78Q, the “fold change of barcode share” value is reported as 0.749 ± 0.1.

Same assay, conditions: with Escherichia coli (laboratory strain); antibiotic: gentamicin; 2× MIC (MIC 0.45 µg/mL)
L249D was tested, and the “fold change of barcode share” value was 0.00812 ± 0.00072. For L249P, the “fold change of barcode share” value was 0.00622 ± 0.00044. In the case of L249W, the “fold change of barcode share” value is reported as 0.00768 ± 0.0034. L249A was tested, and the “fold change of barcode share” value was 0.00843 ± 0.0045. L79Q was tested, and the “fold change of barcode share” value was 0.0162 ± 0.01. With L79D the “fold change of barcode share” value was 0.00824 ± 0.00092. With L79P the “fold change of barcode share” value was 0.00591 ± 0.0051. In the case of L79W, the “fold change of barcode share” value is reported as 0.00996 ± 0.00077. In the case of L79A, the “fold change of barcode share” value is reported as 0.00884 ± 0.0015. L200W was tested, and the “fold change of barcode share” value was 0.0174 ± 0.01. L200D was tested, and the “fold change of barcode share” value was 0.0143 ± 0.013. For L200A, the “fold change of barcode share” value was 0.0176 ± 0.015. For L200P, the “fold change of barcode share” value was 0.00775 ± 0.0039. For L200Q, the “fold change of barcode share” value was 0.0203 ± 0.015. V103A was tested, and the “fold change of barcode share” value was 0.00909 ± 0.0014. With V103P the “fold change of barcode share” value was 0.00949 ± 0.0028. In the case of V103Q, the “fold change of barcode share” value is reported as 0.0133 ± 0.0066. For V103W, the “fold change of barcode share” value was 0.00581 ± 0.0016. For V103D, the “fold change of barcode share” value was 0.00723 ± 0.0018. For W78Q, the “fold change of barcode share” value was 0.0122 ± 0.0043. With W78P the “fold change of barcode share” value was 0.00796 ± 0.0054. W78A was tested, and the “fold change of barcode share” value was 0.0128 ± 0.0036.

Variants of: B2
Experiment: as above
Conditions: with Escherichia coli (laboratory strain); antibiotic: carbenicillin; 2× MIC (3.1 µg/mL)
Protocol: as §1
With L190D the “fold change of barcode share” value was 0.496 ± 0.23. For L190P, the “fold change of barcode share” value was 0.485 ± 0.17. For L190W, the “fold change of barcode share” value was 0.498 ± 0.48. For L190A, the “fold change of barcode share” value was 0.573 ± 0.03. L190Q was tested, and the “fold change of barcode share” value was 0.924 ± 0.85. In the case of V316Q, the “fold change of barcode share” value is reported as 0.207 ± 0.085. In the case of V124Q, the “fold change of barcode share” value is reported as 1.94 ± 1.9. For V124A, the “fold change of barcode share” value was 0.25 ± 0.045. For V124P, the “fold change of barcode share” value was 0.753 ± 0.28. L125A was tested, and the “fold change of barcode share” value was 0.16 ± 0.11. In the case of L125W, the “fold change of barcode share” value is reported as 0.177 ± 0.053. In the case of L125Q, the “fold change of barcode share” value is reported as 0.323 ± 0.0091. With L189Q the “fold change of barcode share” value was 0.217 ± 0.13. In the case of L189W, the “fold change of barcode share” value is reported as 0.33 ± 0.057. In the case of L189P, the “fold change of barcode share” value is reported as 0.29 ± 0.065. L189A was tested, and the “fold change of barcode share” value was 0.264 ± 0.035. With F269W the “fold change of barcode share” value was 0.305 ± 0.18. F269Q was tested, and the “fold change of barcode share” value was 0.328 ± 0.063. In the case of F269A, the “fold change of barcode share” value is reported as 0.376 ± 0.2. M265A was tested, and the “fold change of barcode share” value was 0.311 ± 0.027. With M265D the “fold change of barcode share” value was 0.697 ± 0.33. M265Q was tested, and the “fold change of barcode share” value was 0.245 ± 0.057. In the case of L191W, the “fold change of barcode share” value is reported as 0.462 ± 0.0091. In the case of L191Q, the “fold change of barcode share” value is reported as 0.422 ± 0.0065. With L191P the “fold change of barcode share” value was 0.183 ± 0.023. L191A was tested, and the “fold change of barcode share” value was 0.268 ± 0.12. For L191D, the “fold change of barcode share” value was 2.78 ± 0.79. In the case of W69A, the “fold change of barcode share” value is reported as 0.474 ± 0.091. In the case of W69D, the “fold change of barcode share” value is reported as 0.368 ± 0.036. For W69P, the “fold change of barcode share” value was 1.01 ± 0.092. W69Q was tested, and the “fold change of barcode share” value was 0.306 ± 0.12.

Same assay, conditions: with Escherichia coli (laboratory strain); antibiotic: gentamicin; 2× MIC (MIC 0.45 µg/mL)
With L190D the “fold change of barcode share” value was 0.00626 ± 0.0054. For L190P, the “fold change of barcode share” value was 0.0276 ± 0.03. With L190W the “fold change of barcode share” value was < 0.0167. With L190A the “fold change of barcode share” value was < 0.00271. With L190Q the “fold change of barcode share” value was < 0.00477. For V316W, the “fold change of barcode share” value was < 0.0143. V316Q was tested, and the “fold change of barcode share” value was < 0.00818. V124Q was tested, and the “fold change of barcode share” value was 0.0225 ± 0.0044. V124A was tested, and the “fold change of barcode share” value was < 0.00662. In the case of V124P, the “fold change of barcode share” value is reported as 7.79 ± 8.2. With L125W the “fold change of barcode share” value was 0.0088 ± 0.0035. In the case of L125Q, the “fold change of barcode share” value is reported as < 0.00895. With L189Q the “fold change of barcode share” value was 0.0176 ± 0.02. In the case of L189W, the “fold change of barcode share” value is reported as 0.00356 ± 0.0019. With L189P the “fold change of barcode share” value was < 0.0121. For L189A, the “fold change of barcode share” value was 0.00519 ± 0.00059. With F269W the “fold change of barcode share” value was 0.0125 ± 0.015. F269Q was tested, and the “fold change of barcode share” value was 0.0147 ± 0.013. With F269A the “fold change of barcode share” value was 0.00801 ± 0.0033. With M265A the “fold change of barcode share” value was 0.00707 ± 0.0022. M265D was tested, and the “fold change of barcode share” value was 0.00666 ± 0.0022. M265Q was tested, and the “fold change of barcode share” value was < 0.00519. For L191W, the “fold change of barcode share” value was 0.00777 ± 0.006. In the case of L191Q, the “fold change of barcode share” value is reported as < 0.00536. For L191P, the “fold change of barcode share” value was 0.013 ± 0.011. For L191A, the “fold change of barcode share” value was 0.00856 ± 0.0067. For L191D, the “fold change of barcode share” value was 0.079 ± 0.064. For W69A, the “fold change of barcode share” value was 0.00274 ± 0.0029. In the case of W69D, the “fold change of barcode share” value is reported as 0.00633 ± 0.0048. For W69P, the “fold change of barcode share” value was 209 [active]. In the case of W69Q, the “fold change of barcode share” value is reported as 0.0032 ± 0.0011.

From the supplement of paper PMC11876631
